The values that follow come from ChEMBL document CHEMBL4888484, “Replenishing the malaria drug discovery pipeline: Screening and hit evaluation of the MMV Hit Generation Library 1 (HGL1) against asexual blood stage Plasmodium falciparum ,using a nano luciferase reporter read-out” (2022).

The campaign covered roughly 150,000 compounds. About 540 (0.36%) showed an effect of 50% or more. The list shows a part of the results.

The % Inhibition is the relative decrease from the control value, in per cent.

In the assay the test system is Plasmodium falciparum. Put plainly: Primary screen in NF54 nanoGlo assay, in single point, at 2uM, 72h; a lower Z score goes with more inhibition. Conditions: timepoint 72 hour. The class given is functional, Erythrocyte.
In the case of `CC(=O)N1CCCn2nc(-c3ccc(F)cc3)cc2C1`, the “% Inhibition” value is given as -17% and the Z score is 1.52.
For `O=C1OCCC1NC(c1ccccc1)C1CCC1` (stereo unspecified) the same measures were -8% and 1.29.
The like results for `Cc1ccc(CN2c3ccccc3OC[C@@H]2CC(=O)NCc2ccc(Cl)cc2)cc1` were, in that order, -2% and 0.31.
The like results for `O=C(O)c1cccc(NC(=O)[C@H]2CCCC[C@@H]2C(F)(F)F)c1` were, in that order, 8% and -1.
Regarding `Cn1ncnc1CCNC(=O)NC(C1CCCC1)C1CCCC1`, the “% Inhibition” value came out at 35% and the Z score is reported as -4.68.
For `Cc1nn(C)c(C)c1CN1CCC(CC2CC2)(c2noc(C3CCOCC3)n2)CC1`, the “% Inhibition” value is reported as -6% and the Z score was 0.85.
The like results for `O=C(c1cccc(F)c1F)N1C[C@@H]2CN(CC3CCC3)C[C@]2(C(=O)O)C1` were, in that order, -2% and 0.15.
The like results for `CCOc1cc(-c2c(C)c(-c3cnn(C)c3)nc(N)c2C#N)ccc1O` were, in that order, -10% and 1.24.
As for `Cc1cnn([C@@H](C)CNC(=O)c2cnccc2C)c1`, the “% Inhibition” value is given as -3% and the Z score turned out to be 0.57.
For `Cc1cccc(C[C@H](C)Nc2ncnc3[nH]cnc23)n1` the same measures were 1% and -0.23.
For `CN(CCCc1n[nH]c(N)c1C#N)c1ccc2nnc(C3CC3)n2n1` the same measures were -4% and 0.59.
As for `CCOC(=O)[C@@]1(CCOc2ccccc2)CCCN(C2CCN(C)CC2)C1`, the “% Inhibition” value is on record as -11% and the Z score is reported as 1.69.
Regarding `Cn1nccc1CNC(=O)NC1(Cc2ccccc2)CCCC1`, the “% Inhibition” value was 0% and the Z score was -0.04.
The like results for `C[C@]1(CO)CCCN1C(=O)NCCc1csc(-c2ccccc2)n1` were, in that order, -9% and 0.89.
For `COCCc1noc(Cc2cccc(F)c2F)n1` the same measures were 0% and 0.
For `N#Cc1cccc(CN(CC(F)F)C2CCS(=O)(=O)CC2)c1` the same measures were -7% and 1.21.
With `COC(=O)C1CCC(C(=O)NC(C)c2nc(-c3cccnc3)cs2)O1` (stereo unspecified), the “% Inhibition” value is recorded as -6% and the Z score was found to be 0.71.
For `Cn1c(CCNC(=O)[C@@H]2CNCCO2)nc2ccc(F)cc21` the same measures were 0% and -0.01.
For `O=C(NCc1nc2ccccc2s1)c1ccco1` the same measures were -6% and 0.84.
For `CCn1cc(-c2n[nH]cc2C(=O)N(C)CC(C)(C)CO)cn1` the same measures were -5% and 0.67.
As to `COc1ccc(CN2C(=O)N[C@@H](CC(=O)Nc3cnn(C)c3)C2=O)cc1`, the “% Inhibition” value is 2% and the Z score is -0.23.
For `CCOc1ccc(-c2ccnc(N3CCN4CCC[C@H]4C3)n2)cc1C(=O)O` the same measures were 2% and -0.18.
The like results for `COCCC1(C(=O)N2CCC[C@H](C(=O)N3CCCC3)C2)CCCC1` were, in that order, 1% and -0.1.
For `Cn1cnc(C(=O)N2CCC(Cc3ccc(CN4CCCC4)cc3)CC2)c1` the same measures were -12% and 2.39.
In the case of `Cc1ccsc1C(Cc1ccccc1)NC(=O)NC1COCC1O` (stereo unspecified), the “% Inhibition” value is given as 34% and the Z score was -3.84.
The like results for `CC1CN(CC(=O)Nc2ncc(Cc3c(Cl)cccc3Cl)s2)CC(C)O1` (stereo unspecified) were, in that order, -8% and 1.18.
For `O=C(N[C@@]1(CO)CCOC1)c1cc(-c2ccncc2)on1`, the “% Inhibition” value was found to be 10% and the Z score is listed as -1.33.
For `c1ccc(-c2nc(-c3cccs3)[nH]c2-c2ccccc2)cc1` the same measures were 10% and -1.25.
In the case of `CC(C)c1ncsc1C(=O)NCc1ncc(C(C)(C)C)o1`, the “% Inhibition” value is -4% and the Z score is listed as 0.69.
For `C[C@@](CO)(NC(=O)Cn1ccccc1=O)C1CCCCC1`, the “% Inhibition” value is on record as -13% and the Z score amounted to 1.27.
For `O=C(Nc1ccccc1C(=O)N1CCN(Cc2ccccc2)CC1)c1cccs1` the same measures were 18% and -2.28.
For `CC1=C(CCN2CCC(CCC(=O)NCc3cccnc3)CC2)C(C)(C)CCC1` the same measures were -9% and 1.49.
For `CN(Cc1ccccc1)C1(C(=O)N2CCNC(=O)C2)Cc2ccccc2C1` the same measures were -15% and 2.87.
As for `Cc1cc(C)c2c(c1)c(C)cc(=O)n2CC(=O)N1CCOCC1`, the “% Inhibition” value is on record as -8% and the Z score worked out at 1.13.
As to `O=C(NCc1cccnc1-c1ccsc1)[C@@H]1CCCO1`, the “% Inhibition” value was 0% and the Z score is given as -0.03.
The like results for `COc1ccc(CCNC(=O)c2cc3n(n2)CCN(Cc2cccc(Cl)c2)C3=O)cc1OC` were, in that order, -1% and 0.15.
The like results for `Cc1nnc([C@@H]2CCCCCN2S(=O)(=O)c2ccccc2C)o1` were, in that order, -15% and 2.78.
The like results for `CN(C)C(=O)CN(Cc1csc(-c2ccoc2)n1)c1ccccc1` were, in that order, 3% and -0.31.
On to `O=C(c1ncccc1O)N1CCc2[nH]c(-c3cccnc3)nc2C1`, for which the “% Inhibition” value is -14% and the Z score came out at 1.25.
For `Cc1ccccc1CNC(=O)c1ccc(-n2ccc3ccccc32)s1` the same measures were 1% and -0.17.
For the compound `O=C(Cc1cccc2ccccc12)Nc1nnc(-c2cc(Cl)ccc2Cl)o1`, the “% Inhibition” value is -4% and the Z score came to 0.67.
For `CN(C)c1ccc(NC(=O)C2CCOCC2)cn1` the same measures were 0% and 0.
For `Cc1noc(C)c1[C@@H](C)CNC(=O)c1csc(C(C)(C)C)n1` the same measures were -17% and 3.2.
